Laboratory results: PubChem BioAssay AID504832 (National Center for Advancing Translational Sciences (NCATS), 2011)
About 18,000 (5.8%) of roughly 310,000 compounds were called active. The shares of active, inactive and inconclusive entries below differ from those in the screen. The call rests on the fitted dose curve; in most records, active means well fitted inhibition curve with a large enough effect; inconclusive means small, poorly fitted or top-dose-only effect, or another doubt; inactive means no such curve, though single readings can be large or run the other way. Potencies of inconclusive entries are left out as doubtful fits.

Test: Primary qHTS for delayed death inhibitors of the malarial parasite plastid, 48 hour incubation
Details: P. falciparum luciferase growth in erythrocytes; series mostly up to 28.7 µM; activity change, negative = inhibition: at the top concentration
Method in brief: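 In quantitative HTS format, infected erythrocytes bearing luciferase-reporter parasites were treated for a single generation at 37 C. Luminescence after adding detection reagent served as the growth measure.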
On the % scale 0 is the no-effect control and ±100 the full control effect; potency means the concentration at half of the fitted maximal effect; tags describe the fitted curve by direction and shape.

Compound	activity change, negative = inhibition	Potency
CCC(=O)Nc1ccc(N2CCOCC2)c(S(=O)(=O)Nc2ccc(OC)cc2)c1	inactive: 6.78%	–
CCCCn1c(=N)n(CC(O)c2ccccc2)c2ccccc21 (stereo not drawn)	–	active: 2.08 µM
COc1ccc(C2(C)NC(=O)N(CC(=O)c3cc(C)n(C4CC4)c3C)C2=O)cc1 (stereo not drawn)	–	inconclusive [inhibitor, partial curve, poor fit]
O=C(NCc1ccccc1)C1=C[C@H](C2CCCCC2)C[C@H](OCc2ccc(CO)cc2)O1	–	inconclusive [inhibitor, single point]
CCOC(=O)C1(CCOc2ccccc2)CCN(Cc2ccc(O)c(OCC)c2)CC1	–	active: 14.7 µM
O=C(/C=C/c1ccco1)NC(=S)Nc1ccccc1N1CCOCC1	–	active: 13.1 µM
CCCn1cc(CN2CCN(Cc3ccc(C)o3)C(CCO)C2)c(C)n1 (stereo not drawn)	inactive: 1.15%	–
CCN1CCSc2ccc(C(=O)NCc3cccc(F)c3)cc21	inactive: 3.77%	–
CCc1nc2oc3ccccc3c(=O)c2c(=O)n1Cc1ccc(OC)cc1	–	inconclusive [inhibitor, partial curve]
O=c1c2oc3nc4c(cc3c2ncn1CCCc1ccccc1)CCCC4	–	inconclusive [inhibitor, single point]
COc1ccc(CNc2ncnc3c2[nH]c2ccccc23)cc1	–	active: 2.33 µM
Cc1ccc(/C(O)=C/C(=O)C(=O)NNC(=O)C(O)(c2ccccc2)c2ccccc2)cc1	–	inconclusive [inhibitor, single point]
Cc1cccc(C(=O)OCC(=O)Nc2ccccc2C(=O)NC2CC2)c1	–	inconclusive [inhibitor, single point]
CC(C)CCn1c(SCC(=O)Nc2ccccc2C(F)(F)F)nc2nccnc2c1=O	–	inconclusive [inhibitor, single point]
COc1cc2nc(CN(C)Cc3ccc(F)cc3)[nH]c(=O)c2cc1OC	–	inconclusive [inhibitor, single point]
Cc1nc2cc(-c3ccc(Br)cc3)[nH]n2c(=O)c1Cl	–	inconclusive [inhibitor, single point]
COc1ccc2cc3c(N)nn(C(=O)c4ccc(F)cc4)c3nc2c1	–	inconclusive [inhibitor, partial curve, poor fit]
CCN(CC)c1ccc(NC(=O)CN(C)Cc2cccs2)cc1	–	inconclusive [inhibitor, single point]
COc1cccc(-c2ccc(NC(=O)C3CCCN(Cc4cc(C)[nH]n4)C3)cc2)c1 (stereo not drawn)	–	inconclusive [inhibitor, partial curve, poor fit]
COc1cc2c(cc1OC)C1(C)N(CC2)C(C(C)=O)=NN1c1ccc(Cl)cc1 (stereo not drawn)	–	inconclusive [inhibitor, partial curve, poor fit]
Fc1ccc(Oc2nc(-c3ccccn3)nc3ccccc23)cc1	–	active: 1.65 µM
Cc1nc2ccc(NC(=O)CCS(=O)(=O)c3ccccc3)cc2s1	–	inconclusive [inhibitor, full curve, poor fit]

Compound	activity change, negative = inhibition	Potency
O=C(Nc1ccc(N2CCCCC2)cc1)c1cccnc1	inactive: 113%	–
COc1cc(/C=N/c2oc(-c3ccccc3)cc2C#N)ccc1O	inactive: -7.92%	–
Cc1cccc(C2Nc3ccccc3C(=O)N2c2ccc(F)cc2)n1 (stereo not drawn)	–	inconclusive [inhibitor, single point]
Cc1nc2sccn2c(=O)c1S(=O)(=O)Nc1ccc(N2CCN(S(C)(=O)=O)CC2)cc1	inactive: -20.9%	–
COc1cc(CN2CCC(C(=O)NCC(C)(C)CN(C)C)CC2)ccc1OCc1ccccc1	–	active: 9.28 µM
CN(CCO)c1nc(N)c2c(N)nc3c(c2c1C#N)CC(=O)N3C1CCCC1	–	inconclusive [inhibitor, partial curve]
N#Cc1ccccc1OCC(=O)Nc1cccc(S(=O)(=O)N2CCCC2)c1	–	inconclusive [inhibitor, single point]
O=C(Nc1ccon1)c1ccc(Cl)c(S(=O)(=O)N2CCCCC2)c1	–	inconclusive [inhibitor, partial curve]
CC(c1ccccc1)n1c(-c2ccc(C(C)(C)C)cc2)n[nH]c1=S (stereo not drawn)	inactive: 20.3%	–
CN(C)CCCn1c(SCC(=O)N2c3ccccc3Sc3ccccc32)nc2ccccc2c1=O	–	active: 10.4 µM
COc1ccc(CN(C(=O)c2snc(C(N)=O)c2N)C(C(=O)NC2CCCC2)c2ccco2)cc1 (stereo not drawn)	–	inconclusive [inhibitor, single point]
O=C(NC(=S)N1CCN(c2c(Cl)cccc2[N+](=O)[O-])CC1)c1cccs1	–	inconclusive [inhibitor, single point]
COc1cc2ncc(S(=O)(=O)c3ccccc3)c(N3CCCC(C)C3)c2cc1OC (stereo not drawn)	–	inconclusive [inhibitor, partial curve, poor fit]
Cc1ccc(-c2c(C(=O)N/N=C/c3ccoc3)nnn2-c2nonc2N)cc1	–	active: 9.28 µM
CCN1CCCC1CNC(=O)CSCc1nc(-c2ccccc2C)oc1C (stereo not drawn)	–	inconclusive [inhibitor, partial curve]
CCOC(=O)N1CCN(S(=O)(=O)c2c(C)nc3scc(C)n3c2=O)CC1	–	inconclusive [inhibitor, single point]
N#C/C(=C\c1cn[nH]c1-c1ccccc1)C(=O)NC1CCCCCC1	–	inconclusive [inhibitor, single point]
O=[N+]([O-])c1ccc(SCc2ccco2)cc1N1CCOCC1	–	inconclusive [inhibitor, single point]
Cc1cc(C)c2c(N)c(C(=O)NN3CC(=O)N(c4ccccc4)CC3=O)sc2n1	inactive: -6.21%	–
O=S(=O)(Nc1ccc(-n2cnnn2)cc1)c1cccc(F)c1	–	inconclusive [inhibitor, partial curve, poor fit]
C#CCOCCOCCOCCNc1nc(N2CCN(C(=O)[C@H]([C@@H](C)O)n3cc(CCCCN)nn3)CC2)nc(N2CCN(C(=O)[C@H]([C@@H](C)CC)n3cc(CCCN=C(N)N)nn3)CC2)n1	–	inconclusive [inhibitor, partial curve, poor fit]
